Experimental data taken from PubChem BioAssay AID1460 (National Center for Advancing Translational Sciences (NCATS), 2008).
Out of some 270,000 compounds screened, about 5,800 (2.1%) were called active. Inconclusive results, whose numbers are uncertain, are shown with a selection of clear calls. Calls follow the shape of the dose curve; as a rule, active = well fitted inhibition curve with a large enough effect; inconclusive = small, poorly fitted or top-dose-only effect; inactive = flat fitted curve, though single readings scatter. Potencies of inconclusive entries are doubtful fits and often do not repeat.

Target: Microtubule-associated protein tau (Homo sapiens) (UniProt P10636)
Experiment: qHTS for Inhibitors of Tau Fibril Formation, Thioflavin T Binding; also: nearly all actives have a fitted effect of over 55% in size
Conditions: recombinant tau K18 P301L (four-repeat tau fragment), heparin-induced fibrillization, ThT fluorescence; series mostly up to 57.4 µM; activity, negative = inhibition: at the top concentration
Summary of the method: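 Recombinant human tau K18 fragment […] carrying P301L, 15 uM unlabeled plus 0.24 uM Alexa 594-labeled, was fibrillized with 20 uM heparin in 100 mM sodium acetate pH 7 for 6 hr at 37 C; 30 uM ThT fluorescence read after 1 hr.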
% is scaled to controls: 0 for no effect and ±100 for the full control effect; potency is read from the fitted curve at half-maximal effect; tags tell the direction and shape of the fitted curve.

Sequence of UniProt P10636 (P10636 whole entry, looked up): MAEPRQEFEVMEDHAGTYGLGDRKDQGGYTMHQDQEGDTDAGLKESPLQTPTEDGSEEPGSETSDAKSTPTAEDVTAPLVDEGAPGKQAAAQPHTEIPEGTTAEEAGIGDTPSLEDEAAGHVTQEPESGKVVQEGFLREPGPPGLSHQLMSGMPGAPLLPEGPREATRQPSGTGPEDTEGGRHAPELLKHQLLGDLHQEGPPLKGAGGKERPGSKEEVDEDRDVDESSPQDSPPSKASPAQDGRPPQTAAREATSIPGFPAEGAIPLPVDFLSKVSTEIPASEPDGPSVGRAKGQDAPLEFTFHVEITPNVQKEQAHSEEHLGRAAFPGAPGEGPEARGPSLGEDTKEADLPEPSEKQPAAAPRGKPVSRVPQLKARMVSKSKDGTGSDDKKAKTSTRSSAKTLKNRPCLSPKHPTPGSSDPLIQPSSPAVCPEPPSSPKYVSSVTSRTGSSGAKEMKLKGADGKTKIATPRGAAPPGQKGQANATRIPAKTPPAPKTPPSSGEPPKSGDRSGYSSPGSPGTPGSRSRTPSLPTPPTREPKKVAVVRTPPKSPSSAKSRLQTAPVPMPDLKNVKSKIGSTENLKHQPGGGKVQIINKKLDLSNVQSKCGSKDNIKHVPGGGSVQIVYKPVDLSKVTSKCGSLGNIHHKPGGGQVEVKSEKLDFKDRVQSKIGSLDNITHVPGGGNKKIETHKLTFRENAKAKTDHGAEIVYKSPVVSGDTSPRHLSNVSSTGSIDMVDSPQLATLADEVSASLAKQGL

**Q.** How did the Potency turn out when `C[C@@H]1O[C@@H](OC[C@H]2O[C@@H](Oc3c(-c4cccc(O)c4O)oc4cc(O)cc(O)c4c3=O)[C@H](O)[C@@H](O)[C@@H]2O)[C@H](O)[C@H](O)[C@H]1O` was run?
**A.** inconclusive: 35.5 µM [inhibitor, single point]

**Q.** For `Cc1ccc(N(CC(=O)N2CCN(c3cc(C)ccc3C)CC2)S(=O)(=O)c2c(C)nn(C)c2C)cc1`, which Potency is on record?
**A.** inconclusive: 11.2 µM [inhibitor, partial curve, poor fit]

**Q.** For `Cc1cc(N2CCN(C(=O)c3ccco3)CC2)n2ncnc2n1`, which “activity, negative = inhibition” value is on record?
**A.** inactive: -3.62%

**Q.** How did the “activity, negative = inhibition” value turn out when `O=C(O)CC1c2ccccc2CCN1C(=O)Nc1cc(Cl)ccc1Cl` (configuration not stated) was run?
**A.** inactive: -2.4%

**Q.** For `N#Cc1c(N)sc(=S)c2c1CCCC2`, which Potency is on record?
**A.** active: 14.1 µM

**Q.** How did the Potency turn out when `CC(C)N1CC=C2C(C#N)=C(N)C(C#N)(C#N)[C@H](c3ccoc3)[C@H]2C1` was run?
**A.** active: 20 µM

**Q.** How did the Potency turn out when `COc1ccc(N2CCN(C(=O)CCCOc3cc(=O)n(C)c4ccccc34)CC2)cc1` was run?
**A.** inconclusive: 3.98 µM [inhibitor, partial curve]

**Q.** Which Potency does the source give for `Cc1cc(N/N=C/c2ccc(O)cc2O)nc(N2CCOCC2)n1` here?
**A.** inconclusive: 4.47 µM [inhibitor, partial curve]

**Q.** With `CCCCC(c1nnnn1CCOC)N1CCN(CC)CC1` (configuration not stated) as the compound, how does the “activity, negative = inhibition” value read?
**A.** inactive: -4.21%

**Q.** For `CN(C(=O)Cn1nc(Cc2cccnc2)c2ccccc2c1=O)c1cccc(C(F)(F)F)c1`, which “activity, negative = inhibition” value is on record?
**A.** inactive: -0.73%

**Q.** For `Nc1c(C(=O)NCc2ccccc2)c2nc3ccccc3nc2n1CCCN1CCOCC1`, which Potency is on record?
**A.** inconclusive: 39.8 µM [inhibitor, single point]

**Q.** Which Potency does the source give for `O=C(Oc1ccc(Cl)cc1)c1ccc(N2CCOCC2)c([N+](=O)[O-])c1` here?
**A.** inconclusive: 12.6 µM [inhibitor, partial curve]

**Q.** With `CCCc1cc(=O)oc2c3c(ccc12)OCN(Cc1ccccc1OC)C3` as the compound, how does the “activity, negative = inhibition” value read?
**A.** inactive: -2.73%

**Q.** For `Cc1ccc(C2C3=C(CC(C)(C)CC3=O)N=C3c4ccccc4C(=O)C32)cc1` (configuration not stated), which Potency is on record?
**A.** inconclusive: 28.2 µM [inhibitor, partial curve]

**Q.** `Cc1cc(C)c2c(N)c(C(=O)N3CCc4ccccc4C3)sc2n1` was tested. Which Potency did it give?
**A.** inconclusive: 15.8 µM [inhibitor, single point]

**Q.** How did the “activity, negative = inhibition” value turn out when `Cc1ccc2nc(CSc3nnc(-c4ccncc4)n3C)cc(=O)n2c1` was run?
**A.** inactive: -3.22%

**Q.** `Cc1ccc(CNC(=O)C(=O)Nc2c3c(nn2-c2ccc(F)cc2)CSC3)cc1` was tested. Which “activity, negative = inhibition” value did it give?
**A.** inactive: -4.77%

**Q.** With `Cc1cnc(C(=O)Nc2cccc(-c3nnc4n3CCCCC4)c2)cn1` as the compound, how does the “activity, negative = inhibition” value read?
**A.** inactive: -0.0992%

**Q.** For `CCOc1ccccc1-c1ccc(C(=O)O)o1`, which Potency is on record?
**A.** inconclusive: 28.2 µM [inhibitor, partial curve]

**Q.** `Clc1ccc2nc(CN3CCCc4ccccc43)cn2c1` was tested. Which Potency did it give?
**A.** inconclusive: 28.2 µM [inhibitor, partial curve]

**Q.** Which Potency does the source give for `O=C(CN1C(=O)NC(Cc2c[nH]c3ccccc23)C1=O)Nc1cccc(S(=O)(=O)N2CCCC2)c1` (configuration not stated) here?
**A.** inconclusive: 0.0224 µM [inhibitor, full curve, poor fit]

**Q.** How did the Potency turn out when `Cc1cccc2c1-c1sc(C(=O)Nc3ccc(F)cc3F)cc1CO2` was run?
**A.** inconclusive: 0.398 µM [inhibitor, full curve]

**Q.** For `Cc1cc(C)c(C)c(N=Nc2nc3ccccc3n2C)c1C`, which Potency is on record?
**A.** active: 8.91 µM

**Q.** For `Cc1ccc(/C=N/Nc2ccc3ccccc3n2)o1`, which Potency is on record?
**A.** inconclusive: 12.6 µM [inhibitor, partial curve]

**Q.** For `Cc1cc(Cl)ccc1-n1c(CCC(=O)O)ccc1-c1cccs1`, which Potency is on record?
**A.** inconclusive: 20 µM [inhibitor, single point]

**Q.** For `CN(C)c1ccc(-c2nnn(CC(=O)Nc3ccccc3N3CCOCC3)n2)cc1`, which Potency is on record?
**A.** inconclusive: 12.6 µM [inhibitor, partial curve]

**Q.** For `COC(=O)COc1ccc(-c2nnc(Nc3ccc(O)cc3)c3ccccc23)cc1`, which Potency is on record?
**A.** inconclusive: 1.78 µM [inhibitor, full curve, poor fit]

**Q.** With `CCCCC1CCC(C(=O)N2CC(=O)Nc3ccc(Br)cc3C2c2ccc(F)cc2)CC1` (configuration not stated) as the compound, how does the “activity, negative = inhibition” value read?
**A.** inactive: -12.5%

**Q.** `Cc1cc(-c2n[nH]c(=S)n2/N=C/c2cccs2)n[nH]1` was tested. Which “activity, negative = inhibition” value did it give?
**A.** inactive: -11.5%

**Q.** Which “activity, negative = inhibition” value does the source give for `CCOC(=O)C1CCN(C(=S)Nc2cccc(C)c2C)CC1` here?
**A.** inactive: -9.56%

**Q.** `O=C(Nc1ccc2c(c1)oc1ccccc12)c1ccc2c(c1)OCO2` was tested. Which Potency did it give?
**A.** inconclusive: 39.8 µM [activator, single point]

**Q.** With `COC(=O)c1sccc1NC(=S)Nc1ccccc1` as the compound, how does the “activity, negative = inhibition” value read?
**A.** inactive: -4.95%

**Q.** How did the Potency turn out when `O=C(N/N=C/c1c(Cl)[nH]c2ccccc12)c1sc2ccccc2c1Cl` was run?
**A.** inconclusive: 2.24 µM [inhibitor, full curve]

**Q.** For `CCOc1ccc(CNC(=O)c2oc3c(c2C)-c2nn(Cc4cccc(Cl)c4)cc2CC3)cc1`, which Potency is on record?
**A.** inconclusive: 17.8 µM [inhibitor, single point]

**Q.** With `Cc1cccc(C)c1N1CCN(C(=O)N2CCCCC2)CC1` as the compound, how does the “activity, negative = inhibition” value read?
**A.** inactive: -9.98%

**Q.** `Cc1sc(NC(=O)c2ccc(Br)s2)c(C(N)=O)c1C` was tested. Which Potency did it give?
**A.** inconclusive: 1.58 µM [inhibitor, full curve, poor fit]

**Q.** Which Potency does the source give for `CCCCOc1nc(N2CCOCC2)nc(C)c1[N+](=O)[O-]` here?
**A.** inconclusive: 31.6 µM [inhibitor, partial curve, poor fit]

**Q.** `O=C(c1ccco1)n1c(=S)nc2ccccn21` was tested. Which Potency did it give?
**A.** inconclusive: 28.2 µM [inhibitor, single point]

**Q.** Which “activity, negative = inhibition” value does the source give for `CCCCOc1ccccc1C1CC(=O)Nc2ccc3ccccc3c21` (configuration not stated) here?
**A.** inactive: -3.28%

**Q.** `Cc1ccc(O)c(C(=O)/C=C/c2ccc3c(c2)OCCCO3)c1` was tested. Which “activity, negative = inhibition” value did it give?
**A.** inactive: 14.6%

**Q.** With `COc1ccc(OCC(=O)Nc2nc3ccc(NC(C)=O)cc3s2)cc1` as the compound, how does the Potency read?
**A.** inconclusive: 1.26 µM [inhibitor, full curve, poor fit]

**Q.** With `O=C(c1ccc2c(c1)N(Cc1ccc(Cl)cc1)C(=O)c1ccccc1S2(=O)=O)N1CCCC1` as the compound, how does the “activity, negative = inhibition” value read?
**A.** inactive: -17.2%

**Q.** How did the Potency turn out when `N#CC1=C2SCN(Cc3ccccc3)CN2C(=O)CC1c1ccc2c(c1)OCO2` (configuration not stated) was run?
**A.** active: 20 µM

**Q.** With `CCCCCCC(=O)Nc1ccc2nc3c(=O)n(C)c(=O)n(C)c3nc2c1C` as the compound, how does the Potency read?
**A.** inconclusive: 25.1 µM [inhibitor, partial curve, poor fit]

**Q.** Which Potency does the source give for `O=C(O)c1ccccc1N/C=C\[N+](=O)[O-]` here?
**A.** inconclusive: 31.6 µM [inhibitor, partial curve]

**Q.** With `Cc1cccn2c(=O)c3cc(C(=O)NCCN4CCOCC4)c(=N)n(CCc4ccccc4)c3nc12` as the compound, how does the Potency read?
**A.** inconclusive: 15.8 µM [inhibitor, partial curve]

**Q.** How did the “activity, negative = inhibition” value turn out when `Cc1cc(C)cc(OCC(=O)Nc2cccc3cccnc23)c1` was run?
**A.** inactive: -15.9%

**Q.** For `CC(=O)Nc1ccc(NC(=O)CCCc2c[nH]c3ccccc23)cc1`, which Potency is on record?
**A.** inconclusive: 17.8 µM [inhibitor, partial curve]

**Q.** With `NC(=O)c1c(N)sc2c1CCCC2` as the compound, how does the Potency read?
**A.** active: 22.4 µM

**Q.** For `CCCS(=O)(=O)c1c(S(=O)(=O)CCC)c2cnccn2c1C(=O)c1ccc(F)cc1`, which Potency is on record?
**A.** inconclusive: 0.0891 µM [inhibitor, full curve, poor fit]

**Q.** With `Oc1ccc(N=Nc2nccs2)c(O)c1` as the compound, how does the Potency read?
**A.** active: 3.55 µM

**Q.** With `CC(=O)Oc1ccc(/C=C2/Oc3ccccc3C2=O)cc1` as the compound, how does the Potency read?
**A.** inconclusive: 2.82 µM [inhibitor, full curve, poor fit]

**Q.** Which Potency does the source give for `CCc1ccc(Nc2nnc(SCc3cc(=O)n4ccsc4n3)s2)cc1` here?
**A.** inconclusive: 25.1 µM [inhibitor, partial curve]

**Q.** Which Potency does the source give for `CCOc1ccc2c(c1)C(=NNC(=O)c1ccncc1)c1cc(OCC)ccc1-2` here?
**A.** inconclusive: 3.55 µM [inhibitor, full curve]

**Q.** `CCCCOc1ccc(C(=O)Nc2ccc3c(c2)CCCN3C(=O)c2cccs2)cc1` was tested. Which Potency did it give?
**A.** inconclusive: 17.8 µM [inhibitor, single point]

**Q.** Which “activity, negative = inhibition” value does the source give for `CC(C)(C)c1ccc(C(=O)CCCSC2=C(C#N)C(c3ccco3)C3=C(CCCC3=O)N2)cc1` (configuration not stated) here?
**A.** inactive: -15.4%

**Q.** Which Potency does the source give for `COc1ccc(-c2cc(C(F)F)n3ncc(C(=O)n4ccnc4C)c3n2)cc1` here?
**A.** inconclusive: 25.1 µM [inhibitor, partial curve]

**Q.** With `CC1CCN(C(=O)CSc2nc3[nH]ncc3c(=O)[nH]2)CC1` as the compound, how does the “activity, negative = inhibition” value read?
**A.** inactive: -0.585%

**Q.** For `Cc1ccc(/C=C/C(=O)Nc2ccncc2)o1`, which Potency is on record?
**A.** inconclusive: 39.8 µM [inhibitor, single point]

**Q.** For `CC1CC=C(c2ccccc2)C(=S)N1` (configuration not stated), which “activity, negative = inhibition” value is on record?
**A.** inactive: -6.89%

**Q.** For `CCCCN(CC)C(=O)CSc1nc2n[nH]c(C)c2c(=N)n1-c1ccc(CC)cc1`, which Potency is on record?
**A.** inconclusive: 20 µM [inhibitor, single point]

**Q.** `CN(Cc1ccccc1)S(=O)(=O)c1cccc2cccnc12` was tested. Which “activity, negative = inhibition” value did it give?
**A.** inactive: -7.42%

**Q.** For `O=C(COC(=O)c1ccc2[nH]c3c(c2c1)CCCC3)Nc1ccc(Cl)cc1Cl`, which Potency is on record?
**A.** inconclusive: 7.94 µM [inhibitor, partial curve]

**Q.** With `COc1ccc(NCC(=O)N/N=C/C(C)c2ccccc2)cc1` (configuration not stated) as the compound, how does the Potency read?
**A.** inconclusive: 39.8 µM [inhibitor, single point]

**Q.** With `CSc1nc2nccc(-c3ccc(-c4ccccc4)cc3)n2n1` as the compound, how does the Potency read?
**A.** inconclusive: 11.2 µM [inhibitor, partial curve]

**Q.** How did the Potency turn out when `COc1cc(N=Nc2c(O)c3ccccc3[nH]c2=O)c(OC)cc1N=Nc1ccccc1` was run?
**A.** active: 7.08 µM

**Q.** How did the “activity, negative = inhibition” value turn out when `CCOC(=O)c1sc(N)nc1C(C)C` was run?
**A.** inactive: 0.632%

**Q.** How did the “activity, negative = inhibition” value turn out when `O=C1c2oc3ccccc3c(=O)c2C(c2cccnc2)N1Cc1ccco1` (configuration not stated) was run?
**A.** inactive: -4.81%

**Q.** How did the Potency turn out when `O=C(COc1cc(Cl)c(Cl)cc1Cl)NC(=O)Nc1ccc2c(c1)OCCO2` was run?
**A.** inconclusive: 0.708 µM [inhibitor, full curve]

**Q.** For `Cc1ccc(C2=NNC(C(O)C(O)C(O)C(C)O)S2)cc1` (configuration not stated), which Potency is on record?
**A.** inconclusive: 25.1 µM [inhibitor, partial curve]

**Q.** With `O=C(O)/C=C\C(=O)Nc1ccc(N2CCN(c3cccc(Cl)c3)CC2)cc1` as the compound, how does the Potency read?
**A.** inconclusive: 4.47 µM [inhibitor, full curve]

**Q.** Which Potency does the source give for `N#C/C(=C\c1cccc(O)c1)c1nc2ccccc2o1` here?
**A.** inconclusive: 14.1 µM [inhibitor, partial curve]
